Reference: patent publication US11618753B2 (priority 2018, dated 2023)

The compounds below were run on MLKL phosphorylation, HT29-L23 human colorectal adenocarcinoma cells (assay: cells). Details: read-out: pMLKL HCS Cell Assay (IC50, uM).
Work on `COc1ncc(-c2cc(CN3CCC3)c3c(N)ncnn23)cc1C(=O)N[C@@H]1CN(C(=O)OCC(F)(F)F)C[C@@H]1F` [Example 1555, 2,2,2-trifluoroethyl (3R,4S)-3-(5-{4-amino-5-[(azetidin-1-yl)methyl]pyrrolo[2,1-f][1,2,4]triazin-7-yl}-2-methoxypyridine-3-amido)-4-fluoropyrrolidine-1-carboxylate] yielded an IC50 of 0.0015 µM. In the case of `COc1ncc(-c2cc(CN3CCC(F)(F)CC3)c3c(N)ncnn23)cc1C(=O)N[C@@H]1CN(C(=O)CC(O)(C(F)(F)F)C(F)(F)F)C[C@@H]1F` [Example 1556, 5-{4-amino-5-[(4,4-difluoropiperidin-1-yl)methyl]pyrrolo[2,1-f][1,2,4]triazin-7-yl}-N-[(3R,4S)-4-fluoro-1-[4,4,4-trifluoro-3-hydroxy-3-(trifluoromethyl)butanoyl]pyrrolidin-3-yl]-2-methoxypyridine-3-carboxamide], the IC50 is reported as 0.0035 µM. Compound `COc1ncc(-c2cc(CN3CC(F)(F)C3)c3c(N)ncnn23)cc1C(=O)N[C@@H]1CN(C(=O)[C@@H]2CC2(F)F)C[C@@H]1F` [Example 1557, 5-{4-amino-5-[(3,3-difluoroazetidin-1-yl)methyl]pyrrolo[2,1-f][1,2,4]triazin-7-yl}-N-[(3R,4S)-1-[(1S)-2,2-difluorocyclopropanecarbonyl]-4-fluoropyrrolidin-3-yl]-2-methoxypyridine-3-carboxamide] has an IC50 of 0.018 µM. For `COc1ncc(-c2cc(CN3CC(F)(F)C3)c3c(N)ncnn23)cc1C(=O)N[C@@H]1CN(C(=O)[C@H]2CC2(F)F)C[C@@H]1F` [Example 1558, 5-{4-amino-5-[(3,3-difluoroazetidin-1-yl)methyl]pyrrolo[2,1-f][1,2,4]triazin-7-yl}-N-[(3R,4S)-1-[(1R)-2,2-difluorocyclopropanecarbonyl]-4-fluoropyrrolidin-3-yl]-2-methoxypyridine-3-carboxamide], the IC50 was 0.0088 µM. In the case of `COc1ncc(-c2cc(CN3CCC(F)(F)CC3)c3c(N)ncnn23)cc1C(=O)N[C@@H]1CN(C(=O)[C@@H]2CC2(F)F)C[C@@H]1F` [Example 1559, 5-{4-amino-5-[(4,4-difluoropiperidin-1-yl)methyl]pyrrolo[2,1-f][1,2,4]triazin-7-yl}-N-[(3R,4S)-1-[(1S)-2,2-difluorocyclopropanecarbonyl]-4-fluoropyrrolidin-3-yl]-2-methoxypyridine-3-carboxamide], the IC50 is reported as 0.064 µM. `COc1ncc(-c2cc(CN3CCC(F)(F)CC3)c3c(N)ncnn23)cc1C(=O)N[C@@H]1CN(C(=O)[C@H]2CC2(F)F)C[C@@H]1F` [Example 1560, 5-{4-amino-5-[(4,4-difluoropiperidin-1-yl)methyl]pyrrolo[2,1-f][1,2,4]triazin-7-yl}-N-[(3R,4S)-1-[(1R)-2,2-difluorocyclopropanecarbonyl]-4-fluoropyrrolidin-3-yl]-2-methoxypyridine-3-carboxamide] gave an IC50 of 0.00093 µM. `Cc1c(F)cc(-c2cc(CN3CC(F)(F)C3)c3c(N)ncnn23)cc1C(=O)N[C@@H]1CN(C(=O)OC(C)(C)C)C[C@@H]1F` [Example 1561, tert-butyl (3R,4S)-3-(5-{4-amino-5-[(3,3-difluoroazetidin-1-yl)methyl]pyrrolo[2,1-f][1,2,4]triazin-7-yl}-3-fluoro-2-methylbenzamido)-4-fluoropyrrolidine-1-carboxylate] gave an IC50 of 0.00067 µM. Compound `Cc1c(F)cc(-c2cc(CN3CC(F)(F)C3)c3c(N)ncnn23)cc1C(=O)N[C@@H]1CN(C(=O)C2CC(F)(F)C2)C[C@@H]1F` [Example 1562, 5-{4-amino-5-[(3,3-difluoroazetidin-1-yl)methyl]pyrrolo[2,1-f][1,2,4]triazin-7-yl}-N-[(3R,4S)-1-(3,3-difluorocyclobutanecarbonyl)-4-fluoropyrrolidin-3-yl]-3-fluoro-2-methylbenzamide] has an IC50 of 0.00055 µM. `Cc1c(F)cc(-c2cc(CN3CC(F)(F)C3)c3c(N)ncnn23)cc1C(=O)N[C@@H]1CN(C(=O)C2CC2(F)F)C[C@@H]1F` (stereo partly drawn) [Example 1564, 5-{4-amino-5-[(3,3-difluoroazetidin-1-yl)methyl]pyrrolo[2,1-f][1,2,4]triazin-7-yl}-N-[(3R,4S)-1-(2,2-difluorocyclopropanecarbonyl)-4-fluoropyrrolidin-3-yl]-3-fluoro-2-methylbenzamide] was tested, and the IC50 was 0.001 µM. For `COc1ncc(-c2cc(C3CC3)c3c(N)ncnn23)cc1C(=O)N[C@@H]1CN(C(=O)C2CC(F)(F)C2)C[C@@H]1F` [Example 1566, 5-{4-amino-5-cyclopropylpyrrolo[2,1-f][1,2,4]triazin-7-yl}-N-[(3R,4S)-1-(3,3-difluorocyclobutanecarbonyl)-4-fluoropyrrolidin-3-yl]-2-methoxypyridine-3-carboxamide], the IC50 was 0.0089 µM. `COc1ncc(-c2cc(-c3cncc(C#N)c3)c3c(N)ncnn23)cc1C(=O)N[C@@H]1CN(C(=O)[C@@](C)(O)C(F)(F)F)C[C@@H]1F` [Example 1568, 5-[4-amino-5-(5-cyanopyridin-3-yl)pyrrolo[2,1-f][1,2,4]triazin-7-yl]-N-[(3R,4S)-4-fluoro-1-[(2R)-3,3,3-trifluoro-2-hydroxy-2-methylpropanoyl]pyrrolidin-3-yl]-2-methoxypyridine-3-carboxamide] showed an IC50 of 0.046 µM. Work on `COc1ncc(-c2cc(C#N)c3c(N)ncnn23)cc1C(=O)N[C@@H]1CN(C(=O)[C@@](C)(O)C(F)(F)F)C[C@@H]1F` [Example 1569, 5-{4-amino-5-cyanopyrrolo[2,1-f][1,2,4]triazin-7-yl}-N-[(3R,4S)-4-fluoro-1-[(2R)-3,3,3-trifluoro-2-hydroxy-2-methylpropanoyl]pyrrolidin-3-yl]-2-methoxypyridine-3-carboxamide] yielded an IC50 of 0.014 µM. `COc1cc(F)c(-c2cc(CN3CCC(F)(F)CC3)c3c(N)ncnn23)cc1C(=O)N[C@@H]1CN(C(=O)[C@@](C)(O)C(F)(F)F)C[C@@H]1F` [Example 1570, 5-(4-amino-5-((4,4-difluoropiperidin-1-yl)methyl)pyrrolo[2,1-f][1,2,4]triazin-7-yl)-4-fluoro-N-((3R,4S)-4-fluoro-1-((R)-3,3,3-trifluoro-2-hydroxy-2-methylpropanoyl)pyrrolidin-3-yl)-2-methoxybenzamide] was tested, and the IC50 was 0.002 µM. Compound `Cc1ccc(-c2cc(CN3CCC(F)(F)CC3)c3c(N)ncnn23)cc1C(=O)N[C@@H]1CN(C(=O)[C@@](C)(O)C(F)(F)F)C[C@@H]1F` [Example 1571, 5-{4-amino-5-[(4,4-difluoropiperidin-1-yl)methyl]pyrrolo[2,1-f][1,2,4]triazin-7-yl}-N-[(3R,4S)-4-fluoro-1-[(2R)-3,3,3-trifluoro-2-hydroxy-2-methylpropanoyl]pyrrolidin-3-yl]-2-methylbenzamide] has an IC50 of 0.0014 µM. `Cc1ccc(-c2cc(CN3CCC(F)(F)CC3)c3c(N)ncnn23)cc1C(=O)N[C@@H]1CN(C(=O)[C@@H]2CC2(F)F)C[C@@H]1F` [Example 1572, 5-{4-amino-5-[(4,4-difluoropiperidin-1-yl)methyl]pyrrolo[2,1-f][1,2,4]triazin-7-yl}-N-[(3R,4S)-1-[(1S)-2,2-difluorocyclopropanecarbonyl]-4-fluoropyrrolidin-3-yl]-2-methylbenzamide] gave an IC50 of 0.00041 µM. In the case of `Cc1ccc(-c2cc(CN3CCC(F)(F)CC3)c3c(N)ncnn23)cc1C(=O)N[C@@H]1CN(C(=O)[C@H]2CC2(F)F)C[C@@H]1F` [Example 1573, 5-(4-amino-5-((4,4-difluoropiperidin-1-yl)methyl)pyrrolo[2,1-f][1,2,4]triazin-7-yl)-N-((3R,4S)-1-((R)-2,2-difluorocyclopropane-1-carbonyl)-4-fluoropyrrolidin-3-yl)-2-methylbenzamide], the IC50 is reported as 0.0027 µM. Work on `Cc1ccc(-c2cc(CN3CCC(C(F)(F)F)CC3)c3c(N)ncnn23)cc1C(=O)N[C@@H]1CN(C(=O)OCC(F)(F)F)C[C@@H]1F` [Example 1574, 2,2,2-trifluoroethyl (3R,4S)-3-[5-(4-amino-5-{[4-(trifluoromethyl)piperidin-1-yl]methyl}pyrrolo[2,1-f][1,2,4]triazin-7-yl)-2-methylbenzamido]-4-fluoropyrrolidine-1-carboxylate] yielded an IC50 of 0.00061 µM. For `Cc1ccc(-c2cc(CN3CCC(F)(F)CC3)c3c(N)ncnn23)cc1C(=O)N[C@@H]1CN(C(=O)OCC(F)(F)F)C[C@@H]1F` [Example 1575, 2,2,2-trifluoroethyl (3R,4S)-3-(5-{4-amino-5-[(4,4-difluoropiperidin-1-yl)methyl]pyrrolo[2,1-f][1,2,4]triazin-7-yl}-2-methylbenzamido)-4-fluoropyrrolidine-1-carboxylate], the IC50 was 0.00055 µM. Compound `Cc1ccc(-c2cc(CN3CCOCC3)c3c(N)ncnn23)cc1C(=O)N[C@@H]1CN(C(=O)OCC(F)(F)F)C[C@@H]1F` [Example 1577, 2,2,2-trifluoroethyl (3R,4S)-3-(5-{4-amino-5-[(morpholin-4-yl)methyl]pyrrolo[2,1-f][1,2,4]triazin-7-yl}-2-methylbenzamido)-4-fluoropyrrolidine-1-carboxylate] has an IC50 of 0.00045 µM. `Cc1cc(F)c(-c2cc(CN3CCC(F)(F)CC3)c3c(N)ncnn23)cc1C(=O)N[C@@H]1CN(C(=O)C2CC(F)(F)C2)C[C@@H]1F` [Example 1578, 5-{4-amino-5-[(4,4-difluoropiperidin-1-yl)methyl]pyrrolo[2,1-f][1,2,4]triazin-7-yl}-N-[(3R,4S)-1-(3,3-difluorocyclobutanecarbonyl)-4-fluoropyrrolidin-3-yl]-4-fluoro-2-methylbenzamide] showed an IC50 of 0.001 µM. In the case of `COc1ncc(-c2cc(C(F)(F)F)c3c(N)ncnn23)cc1C(=O)NC1CN(C(=O)C2CC2(F)F)CCC1F` (stereo not shown) [Example 1579, 5-[4-amino-5-(trifluoromethyl)pyrrolo[2,1-f][1,2,4]triazin-7-yl]-N-[1-(2,2-difluorocyclopropanecarbonyl)-4-fluoropiperidin-3-yl]-2-methoxypyridine-3-carboxamide], the IC50 is reported as 0.233 µM. With `COc1ncc(-c2cc(CN3CCC(F)(F)C3)c3c(N)ncnn23)cc1C(=O)N[C@@H]1CN(C(=O)C2CC(F)(F)C2)C[C@@H]1F` [Example 1581, 5-{4-amino-5-[(3,3-difluoropyrrolidin-1-yl)methyl]pyrrolo[2,1-f][1,2,4]triazin-7-yl}-N-[(3R,4S)-1-(3,3-difluorocyclobutanecarbonyl)-4-fluoropyrrolidin-3-yl]-2-methoxypyridine-3-carboxamide] the IC50 was 0.00095 µM.
